Assay results reported in PubChem BioAssay (NCATS).
Inconclusive means that the source gave no clear call. Such entries were picked first, then a sample of the others. A potency beside an inconclusive call is a rough fit, not a confirmed value. The source made the active and inactive calls. The call rests on the fitted dose curve; in most records, active means well fitted inhibition curve with a large enough effect; inconclusive means small, poorly fitted or top-dose-only effect; inactive means no such curve, though single readings can be large or run the other way.

Target: Rap guanine nucleotide exchange factor 3 (Homo sapiens) (UniProt O95398)
Experiment: Confirmatory qHTS for antagonist of cAMP-regulated guanine nucleotide exchange factor 3 (EPAC1) (AID 1645880); further: nearly all actives have a fitted effect of over 55% in size;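 on activity, negative = inhibition: plate controls were DMSO only for no effect and full effect of the ATA control for full effect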
Details: EPAC1 Rap1B-BODIPY-GDP exchange, fluorescence; activity, negative = inhibition: at 115 µM (top of the series)
In short: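 Nucleotide exchange uses 100 nM EPAC1, 250 nM RAP1B-BODIPY-GDP and 50 uM GDP, with compounds in a concentration-titration series. After 5 min at room temperature, fluorescence (480 nm ex/540 nm em) is read every 5 min for 30 min. Data are normalized to control ATA and DMSO.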
Potency means the concentration at half of the fitted maximal effect; tags describe the fitted curve by direction and shape.

Chain of UniProt O95398 (O95398 whole entry, looked up): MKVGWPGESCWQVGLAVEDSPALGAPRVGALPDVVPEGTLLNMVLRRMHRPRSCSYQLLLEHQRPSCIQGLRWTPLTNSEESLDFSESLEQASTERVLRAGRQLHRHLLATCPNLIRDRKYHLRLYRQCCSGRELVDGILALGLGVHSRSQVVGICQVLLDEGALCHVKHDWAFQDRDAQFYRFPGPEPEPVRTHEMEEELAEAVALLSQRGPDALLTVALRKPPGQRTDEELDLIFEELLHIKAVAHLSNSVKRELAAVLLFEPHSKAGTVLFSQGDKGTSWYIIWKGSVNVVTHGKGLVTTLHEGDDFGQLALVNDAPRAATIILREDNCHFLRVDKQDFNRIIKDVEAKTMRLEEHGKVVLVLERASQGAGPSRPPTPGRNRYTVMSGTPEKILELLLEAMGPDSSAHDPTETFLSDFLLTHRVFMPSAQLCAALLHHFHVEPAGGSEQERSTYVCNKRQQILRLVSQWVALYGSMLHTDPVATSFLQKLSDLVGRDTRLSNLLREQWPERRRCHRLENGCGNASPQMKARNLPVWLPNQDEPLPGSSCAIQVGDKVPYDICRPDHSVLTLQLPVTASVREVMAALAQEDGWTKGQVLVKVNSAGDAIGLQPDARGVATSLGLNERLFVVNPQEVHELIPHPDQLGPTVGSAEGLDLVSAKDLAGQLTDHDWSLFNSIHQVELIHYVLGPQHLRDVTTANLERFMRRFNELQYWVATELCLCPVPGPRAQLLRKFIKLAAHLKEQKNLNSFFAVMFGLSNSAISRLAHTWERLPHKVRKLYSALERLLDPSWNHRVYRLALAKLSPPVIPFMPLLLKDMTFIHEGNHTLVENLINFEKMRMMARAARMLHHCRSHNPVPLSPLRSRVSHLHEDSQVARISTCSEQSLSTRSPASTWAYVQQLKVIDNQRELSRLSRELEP

| SMILES | Potency |
| --- | --- |
| CCN(CC(=O)Nc1c(F)cccc1F)C(=O)/C=C/c1ccc2ccccc2n1 | active: 8.49 µM |
| C[C@H]1C=C2C=C[C@H](C)[C@H](CC[C@@H]3C[C@@H](O)CC(=O)O3)[C@H]2[C@@H](OC(=O)[C@@H](C)CCO)C1 | inconclusive: 49.8 µM [inhibitor, partial curve, poor fit] |
| COc1ccc(NC(=O)CN(C)C(=O)c2cc(-c3ccco3)nc3ccccc23)cc1 | inconclusive: 37.9 µM [inhibitor, partial curve] |
| CC(=O)OC1CCC23CC1(C)CCC2C(C)(C)CC3OC(C)=O (configuration not stated) | inactive |
| Cc1ccc(S(=O)(=O)c2nc(-c3ccco3)oc2SC(C)C)cc1 | inconclusive: 39.8 µM [inhibitor, partial curve] |
| O=C(O)CCN1C(=O)/C(=C\c2cccc(Oc3ccccc3)c2)SC1=S | active: 26.9 µM |
| O=C1C=CC(=O)c2c(O)c(N3CCN(CCO)CC3)c(Cl)c(O)c21 | active: 37.9 µM |
| CC(=O)Oc1c2c(c3c(c1CC=C(C)C)O[C@@]14C(=CC5CC1C(C)(C)OC4(C/C=C(\C)C(=O)O)C5=O)C3=O)OC(C)(CCC=C(C)C)C=C2 (some centres not stated) | active: 55.9 µM |
| COC(=O)[C@@H]1C2CC3c4[nH]c5cc(OC)ccc5c4CCN3CC2C[C@H](OC(=O)c2cc(OC)c(OC)c(OC)c2)C1OC (some centres not stated) | inconclusive: 44.4 µM [inhibitor, partial curve, poor fit] |
| Cc1ccc(Cn2c(C)nc3c(c2=O)c2nc4ccccc4nc2n3Cc2ccco2)cc1 | inconclusive: 37.9 µM [inhibitor, partial curve] |
| COc1ccccc1CNc1ccnc(-c2ccc3c(c2)OCO3)n1 | inconclusive: 22.2 µM [inhibitor, partial curve, poor fit] |
| CC(=O)OC1CC[C@]2(C)C(CC(OC(C)=O)[C@@]3(C)C4=CC(=O)OC(c5ccoc5)[C@]4(C)CCC23)C1(C)C (some centres not stated) | inactive |

Target: Rap guanine nucleotide exchange factor 4 (Homo sapiens) (UniProt Q8WZA2)
Experiment: Confirmatory qHTS for antagonist of cAMP-regulated guanine nucleotide exchange factor 4 (EPAC2) (AID 1645885); further: nearly all actives have a fitted effect of over 25% in size; on activity change, negative = inhibition: on the % scale 0 is the no-effect control and ±100 the full control effect
Details: EPAC2 Rap1B-BODIPY-GDP exchange fluorescence, biochemical; activity change, negative = inhibition: at 12.7 µM (top of the series) unless noted; series mostly up to 114 µM

Chain of UniProt Q8WZA2 (Q8WZA2 whole entry, looked up): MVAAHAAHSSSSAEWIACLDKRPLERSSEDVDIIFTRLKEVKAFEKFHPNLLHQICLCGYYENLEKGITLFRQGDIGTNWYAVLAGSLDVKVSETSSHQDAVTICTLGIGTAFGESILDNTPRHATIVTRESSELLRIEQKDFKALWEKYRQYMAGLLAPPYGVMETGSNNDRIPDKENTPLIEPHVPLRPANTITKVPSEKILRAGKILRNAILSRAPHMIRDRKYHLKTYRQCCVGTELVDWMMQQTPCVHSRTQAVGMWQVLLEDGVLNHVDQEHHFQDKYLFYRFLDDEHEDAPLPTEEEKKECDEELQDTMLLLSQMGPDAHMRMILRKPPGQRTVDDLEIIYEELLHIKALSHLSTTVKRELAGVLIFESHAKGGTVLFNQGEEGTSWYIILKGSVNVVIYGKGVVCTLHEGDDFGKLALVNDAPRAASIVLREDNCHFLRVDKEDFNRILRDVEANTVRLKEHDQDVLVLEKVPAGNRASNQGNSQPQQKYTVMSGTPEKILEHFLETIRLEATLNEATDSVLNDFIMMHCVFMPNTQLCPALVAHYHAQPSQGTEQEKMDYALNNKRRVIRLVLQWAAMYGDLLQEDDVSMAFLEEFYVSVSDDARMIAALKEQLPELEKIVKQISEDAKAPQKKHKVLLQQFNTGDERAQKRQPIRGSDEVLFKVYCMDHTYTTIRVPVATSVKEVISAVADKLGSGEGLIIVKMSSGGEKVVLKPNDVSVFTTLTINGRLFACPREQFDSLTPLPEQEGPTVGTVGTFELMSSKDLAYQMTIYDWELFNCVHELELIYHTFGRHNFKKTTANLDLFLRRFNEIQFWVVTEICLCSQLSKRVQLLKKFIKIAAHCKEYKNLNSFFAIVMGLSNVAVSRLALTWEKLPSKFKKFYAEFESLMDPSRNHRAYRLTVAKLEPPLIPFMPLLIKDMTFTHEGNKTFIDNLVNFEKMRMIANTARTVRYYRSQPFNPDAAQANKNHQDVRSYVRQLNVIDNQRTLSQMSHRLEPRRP

| SMILES | Potency | activity change, negative = inhibition |
| --- | --- | --- |
| COC(=O)C1CCN(c2nc3ccccc3nc2C(C#N)C(=O)NCCc2ccccc2)CC1 (configuration not stated) | inconclusive: 37.9 µM [inhibitor, partial curve] |  |
| O=C(CSc1n[nH]c(=O)[nH]c1=O)Nc1ccc2c(c1)C(=O)c1ccccc1C2=O | inconclusive: 42.6 µM [inhibitor, partial curve, poor fit] |  |
| C=CCc1cc(/C=C/c2nc(O)c([N+](=O)[O-])c(=O)[nH]2)cc(OC)c1O | inactive |  |
| CN(Cc1ccco1)c1ncnc2ccc(-c3ccccc3Cl)cc12 | inconclusive: 13.9 µM [inhibitor, full curve] |  |
| O=C(/C=N/O)NCCCN1CCOCC1 | inconclusive: 3.01 µM [inhibitor, partial curve, poor fit] |  |
| C[C@H](CCC(=O)O)[C@H]1CC[C@H]2[C@@H]3CC[C@@H]4C[C@H](O)CC[C@]4(C)[C@H]3CC[C@]12C | inconclusive: 67.5 µM [inhibitor, partial curve, poor fit] |  |
| O=C(O)C1Nc2c(Cl)cc(Cl)c(Cl)c2C2C=CCC12 (configuration not stated) | inconclusive: 95.3 µM [inhibitor, single point] |  |
| Cc1ccc2c(CC(=O)OCc3cc(=O)n4c(n3)sc3ccccc34)coc2c1 | inconclusive: 4.78 µM [inhibitor, full curve, poor fit] |  |
| COc1cc(/C=C2\C(=O)N(c3cccc(C(=O)O)c3)N=C2C)ccc1OCc1ccccc1 | inconclusive: 37.9 µM [inhibitor, full curve] |  |
| O=C(O)c1ccccc1NS(=O)(=O)c1ccc(NN=Cc2ccccc2F)c([N+](=O)[O-])c1 | inactive |  |
| COc1ccccc1OCCOc1ccc(/C=C2\C(=N)N3N=C(S(C)(=O)=O)SC3=NC2=O)cc1 | inconclusive: 21.3 µM [inhibitor, partial curve, poor fit] |  |
| O=C(N/N=C/c1cc(Cl)c(O)c(Cl)c1)c1cc2c(ccc3ccccc32)o1 | inconclusive: 47.8 µM [inhibitor, partial curve] |  |
| COc1cc(/C=C(\C#N)c2nc3ccccc3s2)cc([N+](=O)[O-])c1O | inconclusive: 30.1 µM [inhibitor, partial curve, poor fit] |  |
| COc1cccc(-c2nc(NCc3ccc(OC)cc3OC)c3ccccc3n2)c1 | inconclusive: 12.4 µM [inhibitor, full curve, poor fit] |  |
| O=C(COC(=O)c1c2c(nc3ccccc13)/C(=C/c1ccco1)CC2)NC1CCCC1 | inactive |  |
| COc1ccc(-c2nc3cnc(Nc4cccc(OC)c4)nc3n(Cc3cccs3)c2=O)cc1 | active: 44.1 µM |  |
| COc1cccc(N2CCN(CC(=O)NC(=O)NCc3ccco3)CC2)c1 | inconclusive: 95.3 µM [inhibitor, single point] |  |
| Cc1ccc(/C=C2/SC(=S)N(c3ccc(S(=O)(=O)Nc4nccs4)cc3)C2=O)cc1 | inconclusive: 0.953 µM [inhibitor, full curve, poor fit] |  |
| O=C(Nc1ccccc1)N1CCCC2(CCN(C(=O)c3cc(C(F)(F)F)cc(C(F)(F)F)c3)CC2)C1 | active: 44.1 µM |  |
| N#CC(C(=O)OC1CCCCC1)c1nc2ccccc2nc1N1CCOCC1 (configuration not stated) | inactive |  |

| SMILES | Potency | activity change, negative = inhibition |
| --- | --- | --- |
| O=c1cc2oc3cc(O)c(O)cc3c(-c3ccccc3[N+](=O)[O-])c-2cc1O | inconclusive: 33.8 µM [inhibitor, full curve, poor fit] |  |
| O=C1C=CC2=C3c4cc(O)c(O)cc4CC3(O)COC2=C1O (configuration not stated) | inconclusive: 87.9 µM [inhibitor, single point] |  |
| O=C(O)c1ccc(COc2ccc3ccccc3c2/C=C2/NC(=O)N(Cc3ccc(F)cc3)C2=O)cc1 | inconclusive: 37.9 µM [inhibitor, single point] |  |
| Cc1cc(C)c(Nc2cc(S(=O)(=O)O)c(N)c3c2C(=O)c2ccccc2C3=O)c(C)c1 | active: 75.7 µM |  |
| COc1ccccc1CNc1nc(-c2c(C)noc2C)nc2ccccc12 | active: 39.3 µM |  |
| COC(=O)CC1C2(C)CC34OC5(C)O[C@@]6(C7/C(=C(/OC)C(C)C)C(=O)OC(c8ccoc8)[C@@]7(C)C(OC(=O)C(C)C)C(OC)[C@]6(O5)[C@@]13C)C(OC)[C@]4(OC)C2OC(C)=O (some centres not stated) | inconclusive: 35 µM [inhibitor, partial curve] |  |
| CCCCCCNC(=O)c1cc(-c2ccco2)nc2ccccc12 | inactive |  |
| COc1cc(/C=C/[N+](=O)[O-])ccc1OCc1cccc(C(=O)O)c1 | inconclusive: 0.601 µM [inhibitor, full curve] |  |
| CCN(CC(=O)Nc1c(F)cccc1F)C(=O)/C=C/c1ccc2ccccc2n1 | inconclusive: 95.3 µM [inhibitor, single point] |  |
| C[C@H]1C=C2C=C[C@H](C)[C@H](CC[C@@H]3C[C@@H](O)CC(=O)O3)[C@H]2[C@@H](OC(=O)[C@@H](C)CCO)C1 | inconclusive: 49.4 µM [inhibitor, partial curve] |  |
| COc1ccc(NC(=O)CN(C)C(=O)c2cc(-c3ccco3)nc3ccccc23)cc1 | inactive |  |
| CC(=O)OC1CCC23CC1(C)CCC2C(C)(C)CC3OC(C)=O (configuration not stated) | active: 39.3 µM |  |
| Cc1ccc(S(=O)(=O)c2nc(-c3ccco3)oc2SC(C)C)cc1 | inconclusive: 3.01 µM [inhibitor, partial curve, poor fit] |  |
| O=C(O)CCN1C(=O)/C(=C\c2cccc(Oc3ccccc3)c2)SC1=S | active: 21.3 µM |  |
| O=C1C=CC(=O)c2c(O)c(N3CCN(CCO)CC3)c(Cl)c(O)c21 |  | inconclusive: -38.6% [inhibitor] [at 114 µM] |
| CC(=O)Oc1c2c(c3c(c1CC=C(C)C)O[C@@]14C(=CC5CC1C(C)(C)OC4(C/C=C(\C)C(=O)O)C5=O)C3=O)OC(C)(CCC=C(C)C)C=C2 (some centres not stated) | inconclusive: 69.8 µM [inhibitor, single point] |  |
| COC(=O)[C@@H]1C2CC3c4[nH]c5cc(OC)ccc5c4CCN3CC2C[C@H](OC(=O)c2cc(OC)c(OC)c(OC)c2)C1OC (some centres not stated) | inconclusive: 35 µM [inhibitor, partial curve] |  |
| Cc1ccc(Cn2c(C)nc3c(c2=O)c2nc4ccccc4nc2n3Cc2ccco2)cc1 | inactive |  |
| COc1ccccc1CNc1ccnc(-c2ccc3c(c2)OCO3)n1 | active: 17.5 µM |  |
| CC(=O)OC1CC[C@]2(C)C(CC(OC(C)=O)[C@@]3(C)C4=CC(=O)OC(c5ccoc5)[C@]4(C)CCC23)C1(C)C (some centres not stated) | inconclusive: 44.1 µM [inhibitor, partial curve] |  |
